{"source": "the supplement of paper PMC8728848", "experiment_in_all_cases": "glycan array binding signal (z-score within array); higher = stronger binding", "conditions_in_all_cases": "glycan notation: IUPAC condensed, linker removed", "key": {"[1]": {"biological_target": "Neu5Ac(a2-6)GlcNAc(b1-4)GlcNAc(b1-4)GlcNAc", "summary_of_the_method": "(§1)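 The binding signal is a Z-score computed within each array. Data were drawn from 3228 arrays in the Consortium for Functional Glycomics database, restricted to those with a known protein sequence. Scores were averaged over arrays of the same protein sequence at different concentrations or buffers, and over linkers, and negative values can be taken as non-binding.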"}, "Neu5Ac(a2-8)Neu5Ac": {"biological_target": "Neu5Ac(a2-8)Neu5Ac", "summary_of_the_method": "as §1"}, "[2]": {"biological_target": "Neu5Ac(a2-8)Neu5Ac(a2-3)Gal(b1-3)GalNAc(b1-4)[Neu5Ac(a2-3)]Gal(b1-4)Glc", "summary_of_the_method": "as §1"}, "[3]": {"biological_target": "Neu5Ac(a2-8)Neu5Ac(a2-3)Gal(b1-3)GalNAc(b1-4)[Neu5Ac(a2-8)Neu5Ac(a2-3)]Gal(b1-4)Glc", "summary_of_the_method": "as §1"}, "[4]": {"biological_target": "Neu5Ac(a2-8)Neu5Ac(a2-3)Gal(b1-4)Glc", "summary_of_the_method": "as §1"}, "[5]": {"biological_target": "Neu5Ac(a2-8)Neu5Ac(a2-3)Gal(b1-4)GlcNAc", "summary_of_the_method": "as §1"}, "[6]": {"biological_target": "Neu5Ac(a2-8)Neu5Ac(a2-3)[Gal(b1-3)GalNAc(b1-4)]Gal(b1-4)Glc", "summary_of_the_method": "as §1"}, "[7]": {"biological_target": "Neu5Ac(a2-8)Neu5Ac(a2-3)[GalNAc(b1-4)]Gal(b1-4)Glc", "summary_of_the_method": "as §1"}, "[8]": {"biological_target": "Neu5Ac(a2-8)Neu5Ac(a2-8)Neu5Ac", "summary_of_the_method": "as §1"}, "[9]": {"biological_target": "Neu5Ac(a2-8)Neu5Ac(a2-8)Neu5Ac(a2-3)Gal(b1-4)Glc", "summary_of_the_method": "as §1"}, "[10]": {"biological_target": "Neu5Ac(a2-8)Neu5Ac(a2-8)Neu5Ac(a2-3)[Gal(b1-3)GalNAc(b1-4)]Gal(b1-4)Glc", "summary_of_the_method": "as §1"}, "[11]": {"biological_target": "Neu5Ac(a2-8)Neu5Ac(a2-8)Neu5Ac(a2-3)[GalNAc(b1-4)]Gal(b1-4)Glc", "summary_of_the_method": "as §1"}, "[12]": {"biological_target": "Neu5Ac(a2-8)Neu5Ac(a2-8)Neu5Ac(a2-8)Neu5Ac(a2-3)[GalNAc(b1-4)]Gal(b1-4)Glc", "summary_of_the_method": "as §1"}, "[13]": {"biological_target": "Neu5Ac(a2-8)Neu5Gc(a2-3)Gal(b1-4)GlcNAc", "summary_of_the_method": "as §1"}, "[14]": {"biological_target": "Neu5Ac(b2-6)Gal(b1-4)GlcNAc", "summary_of_the_method": "as §1"}, "Neu5Ac(b2-6)GalNAc": {"biological_target": "Neu5Ac(b2-6)GalNAc", "summary_of_the_method": "as §1"}, "[15]": {"biological_target": "Neu5Ac9Ac(a2-3)Gal(b1-3)GlcNAc", "summary_of_the_method": "as §1"}, "[16]": {"biological_target": "Neu5Ac9Ac(a2-3)Gal(b1-4)GlcNAc", "summary_of_the_method": "as §1"}, "[17]": {"biological_target": "Neu5Ac9Ac(a2-6)Gal(b1-4)GlcNAc", "summary_of_the_method": "as §1"}, "[18]": {"biological_target": "Neu5Gc(a2-3)Gal(b1-3)GlcNAc", "summary_of_the_method": "as §1"}, "[19]": {"biological_target": "Neu5Gc(a2-3)Gal(b1-3)[Fuc(a1-4)]GlcNAc", "summary_of_the_method": "as §1"}, "Neu5Gc(a2-3)Gal(b1-4)Glc": {"biological_target": "Neu5Gc(a2-3)Gal(b1-4)Glc", "summary_of_the_method": "as §1"}, "[20]": {"biological_target": "Neu5Gc(a2-3)Gal(b1-4)GlcNAc", "summary_of_the_method": "as §1"}, "[21]": {"biological_target": "Neu5Gc(a2-3)Gal(b1-4)GlcNAc(b1-3)Gal(b1-4)GlcNAc(b1-2)Man(a1-3)[Neu5Gc(a2-3)Gal(b1-4)GlcNAc(b1-3)Gal(b1-4)GlcNAc(b1-2)Man(a1-6)]Man(b1-4)GlcNAc(b1-4)GlcNAc", "summary_of_the_method": "as §1"}, "[22]": {"biological_target": "Neu5Gc(a2-3)Gal(b1-4)[Fuc(a1-3)]GlcNAc", "summary_of_the_method": "as §1"}, "[23]": {"biological_target": "Neu5Gc(a2-6)Gal(b1-4)GlcNAc", "summary_of_the_method": "as §1"}, "Neu5Gc(a2-6)GalNAc": {"biological_target": "Neu5Gc(a2-6)GalNAc", "summary_of_the_method": "as §1"}, "[24]": {"biological_target": "Neu5Gc(a2-8)Neu5Ac(a2-3)Gal(b1-4)GlcNAc", "summary_of_the_method": "as §1"}, "[25]": {"biological_target": "Neu5Gc(a2-8)Neu5Gc(a2-3)Gal(b1-4)GlcNAc", "summary_of_the_method": "as §1"}, "[26]": {"biological_target": "Neu5Gc(a2-8)Neu5Gc(a2-3)Gal(b1-4)GlcNAc(b1-3)Gal(b1-4)GlcNAc", "summary_of_the_method": "as §1"}, "[27]": {"biological_target": "Neu5Gc(a2-8)Neu5Gc(a2-6)Gal(b1-4)GlcNAc", "summary_of_the_method": "as §1"}, "[28]": {"biological_target": "Neu5Gc(b2-6)Gal(b1-4)GlcNAc", "summary_of_the_method": "as §1"}}, "note": "Some of the results follow.", "data": [{"binder": "SBD-G4S3-SBD (protein) MASIPSSASVQLDSYNYDGSTFSGKIYVKNIAYSKKVTVVYADGSDNWNNNGNIIAASFSGPISGSNYEYWTFSASVKGIKEFYIKYEVSGKTYYDNNNSANYQVSTGGGGSGGGGSGGGGSEFASIPSSASVQLDSYNYDGSTFSGKIYVKNIAYSKKVTVVYADGSDNWNNNGNIIAASFSGPISGSNYEYWTFSASVKGIKEFYIKYEVSGKTYYDNNNSANYQVST", "values": [{"measurement": "glycan array binding signal (z-score)", "setting": "[1]", "value": -0.376}, {"measurement": "glycan array binding signal (z-score)", "setting": "Neu5Ac(a2-8)Neu5Ac", "value": -0.384}, {"measurement": "glycan array binding signal (z-score)", "setting": "[2]", "value": -0.38}, {"measurement": "glycan array binding signal (z-score)", "setting": "[3]", "value": -0.339}, {"measurement": "glycan array binding signal (z-score)", "setting": "[4]", "value": -0.448}, {"measurement": "glycan array binding signal (z-score)", "setting": "[5]", "value": -0.37}, {"measurement": "glycan array binding signal (z-score)", "setting": "[6]", "value": -0.36}, {"measurement": "glycan array binding signal (z-score)", "setting": "[7]", "value": -0.014}, {"measurement": "glycan array binding signal (z-score)", "setting": "[8]", "value": -0.377}, {"measurement": "glycan array binding signal (z-score)", "setting": "[9]", "value": -0.406}, {"measurement": "glycan array binding signal (z-score)", "setting": "[10]", "value": -0.269}, {"measurement": "glycan array binding signal (z-score)", "setting": "[11]", "value": -0.189}, {"measurement": "glycan array binding signal (z-score)", "setting": "[12]", "value": 0.002}, {"measurement": "glycan array binding signal (z-score)", "setting": "[13]", "value": 0.676}, {"measurement": "glycan array binding signal (z-score)", "setting": "[14]", "value": 0.086}, {"measurement": "glycan array binding signal (z-score)", "setting": "Neu5Ac(b2-6)GalNAc", "value": -0.424}, {"measurement": "glycan array binding signal (z-score)", "setting": "[15]", "value": -0.341}, {"measurement": "glycan array binding signal (z-score)", "setting": "[16]", "value": -0.416}, {"measurement": "glycan array binding signal (z-score)", "setting": "[17]", "value": -0.389}, {"measurement": "glycan array binding signal (z-score)", "setting": "[18]", "value": -0.335}, {"measurement": "glycan array binding signal (z-score)", "setting": "[19]", "value": -0.366}, {"measurement": "glycan array binding signal (z-score)", "setting": "Neu5Gc(a2-3)Gal(b1-4)Glc", "value": -0.367}, {"measurement": "glycan array binding signal (z-score)", "setting": "[20]", "value": -0.326}, {"measurement": "glycan array binding signal (z-score)", "setting": "[21]", "value": -0.393}, {"measurement": "glycan array binding signal (z-score)", "setting": "[22]", "value": -0.388}, {"measurement": "glycan array binding signal (z-score)", "setting": "[23]", "value": -0.344}, {"measurement": "glycan array binding signal (z-score)", "setting": "Neu5Gc(a2-6)GalNAc", "value": -0.285}, {"measurement": "glycan array binding signal (z-score)", "setting": "[24]", "value": -0.375}, {"measurement": "glycan array binding signal (z-score)", "setting": "[25]", "value": -0.422}, {"measurement": "glycan array binding signal (z-score)", "setting": "[26]", "value": -0.399}, {"measurement": "glycan array binding signal (z-score)", "setting": "[27]", "value": -0.346}, {"measurement": "glycan array binding signal (z-score)", "setting": "[28]", "value": -0.28}]}]}
